Key:
[1] = biological target: T1, mouse CD36 (Mus musculus, UniProt Q08857); test: ELISA binding to plate-coated mouse CD36; conditions: recombinant mouse CD36 coated plates
T1 construct: purchased Sino Biological 50422-M08H
Experimental: (§1) To perform ELISA assays, 96-well ELISA plates were coated over night with human CD36 (Sino Biological, reference 10752-H08H) or mouse CD36 (Sino Biological, reference 50422-M08H) recombinant proteins at a concentration of 0.25 mg/ml. After two washes with PBS, plates were blocked with 4% skimmed milk in PBS for 1 hour at 37° C. Blocking solution was discarded and plates were washed five times with 200 μl/well PBS-Tween20 (0.5%). Primary antibodies were either omitted (control blocking solution treatment) or mixed in blocking solution at several dilutions ranging from 0.01 nM to 0.5 μM. The primary antibody solutions were added to the wells and incubated over night at 4° C. After 5 washes with 200 ul/well of PBS-Tween20 (0.5%), plates were incubated for 1 hour at room temperature with a goat anti-mouse HRP-conjugated antibody (Abeam, reference ab97235) diluted 1:2000 in blocking solution. Plates were then washed 5 times with 200 μl/well of PBS-Tween20 (0.5%), incubated with 100 μl/well TMB and detected after 10 minutes, 30 minutes, or 60 minutes with a spectrophotometer at a wave length of 630 nm.

[2] = biological target: T2, cells overexpressing human CD36 (Homo sapiens, UniProt P16671); test: FACS binding to cells overexpressing human CD36; conditions: serial dilution up to 100 nM
T2 construct: expressed in transfected cells
T2 sequence (P16671 whole entry): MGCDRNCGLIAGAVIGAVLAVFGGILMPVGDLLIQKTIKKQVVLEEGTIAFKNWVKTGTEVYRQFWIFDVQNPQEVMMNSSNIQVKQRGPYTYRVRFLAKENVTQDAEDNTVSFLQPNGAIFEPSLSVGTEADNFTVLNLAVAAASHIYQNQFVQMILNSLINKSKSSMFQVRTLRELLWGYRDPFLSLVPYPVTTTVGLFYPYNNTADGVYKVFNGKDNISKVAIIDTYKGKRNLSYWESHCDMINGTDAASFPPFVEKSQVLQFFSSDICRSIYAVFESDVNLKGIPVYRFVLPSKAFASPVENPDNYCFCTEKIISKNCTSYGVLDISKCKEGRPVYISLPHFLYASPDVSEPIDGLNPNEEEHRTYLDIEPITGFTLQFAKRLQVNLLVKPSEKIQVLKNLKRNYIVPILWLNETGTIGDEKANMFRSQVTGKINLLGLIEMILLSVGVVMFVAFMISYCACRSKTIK
Experimental: For FACS analysis, cells were trypsinized, collected in a 15 mL tube and diluted in washing buffer (2% FBS in PBS). Cells were then centrifuged at 1500 rpm for 5 min at 4° C., supernatant was discarded, and cells were resuspended in fresh washing buffer. Anti-CD36 antibodies were either omitted (control wash buffer treatment) or serially diluted in washing buffer (dilution range up to 100 nM), and then added to the cells. Incubation was performed on ice for 1 hour. Cells were then centrifuged at 1500 rpm for 5 min at 4° C., supernatant was discarded, and cells were resuspended in fresh washing buffer. Finally, cells were incubated with a […] (BV421 Rat Anti-Mouse IgA, Becton Dickinson, reference 743293) diluted 1:100 in washing buffer, washed and analysed by FACS.

[3] = biological target: CD36 (Homo sapiens, UniProt P16671); test: ELISA binding to plate-coated human CD36; parameters: purchased Sino Biological 10752-H08H; conditions: recombinant human CD36 coated plates
Experimental: as §1

T1 sequence (Q08857 30-439 limits assumed): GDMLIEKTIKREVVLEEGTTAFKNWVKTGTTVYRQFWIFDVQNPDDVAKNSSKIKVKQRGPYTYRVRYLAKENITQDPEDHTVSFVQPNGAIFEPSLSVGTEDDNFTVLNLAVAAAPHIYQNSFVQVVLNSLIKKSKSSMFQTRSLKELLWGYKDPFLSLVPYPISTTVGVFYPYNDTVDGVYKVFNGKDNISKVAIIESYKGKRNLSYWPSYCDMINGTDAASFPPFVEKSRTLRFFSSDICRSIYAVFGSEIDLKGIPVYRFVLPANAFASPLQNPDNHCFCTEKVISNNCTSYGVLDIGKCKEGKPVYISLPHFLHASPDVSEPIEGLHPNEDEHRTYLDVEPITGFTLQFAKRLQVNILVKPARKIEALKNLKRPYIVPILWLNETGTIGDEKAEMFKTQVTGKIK

B1: chimeric ONA-0-v2 IgG1 LALA: chimeric ONA-0-v2 IgG1 LALA antibody; heavy chain SEQ ID NO: 21, light chain SEQ ID NO: 25 (antibody)
heavy: QVQLKQSGADLVRPGASVKLSCKASGYTFTDYYINWVKQRPGQGLEWIARIYPGSGNTYYNEKFKGKATLTAEKSSSTAYMQLSSLTSEDSAVYFCARGIGGGFGMDYWGQGTSVTVSS[skipping human IgG1 constant region with changes]
light: NIVMTQSPKSMSMSVGERVTLTCKASENVVTYVSWYQQKPEQSPKLLIYGASNRYTGVPDRFTGSGSATDFTLTISSVQAEDLADYHCGQGYSYPYTFGGGTKLEIKRTVAAPSVFIFPPSDEQLKSGTASVVCLLNNFYPREAKVQWKVDNALQSGNSQESVTEQDSKDSTYSLSSTLTLSKADYEKHKVYACEVTHQGLSSPVTKSFNRGEC
modifications: 1G04 heavy chain; ONA-0-v2 ch IgG1 LALA light chain
binding to mouse CD36 in ELISA [1]: but not
binding to cells overexpressing human CD36 (FACS) [2]: not observed to interact
binding to human CD36 in ELISA [3]: but not

From patent publication US12643954B2, “Anti-CD36 antibodies and their use to treat cancer” (ONA Therapeutics, S.L., priority 2020, dated 2026)
